The record followed here is PubChem BioAssay AID463173 (ICCB-Longwood Screening Facility, Harvard Medical School, 2010).

About 4,300 (8.3%) of roughly 52,000 compounds were called active. Rule as the data show it: active = survival mostly below about 52% (no sharp cut-off); inactive = mostly above about 56%. This is one part of the list.

The subject of the experiment is DeltatarO mutant. In words: S. aureus survival, RN4220 and DeltatarO strains – OD600, teichoic acid synthesis inhibitors, primary screen (AID 463173). As to conditions: S. aureus RN4220 wild type/DeltatarO growth, OD600, 18 h, active compounds read low, screened at 18.75 µg/mL (by protocol).
As for `COc1ccccc1C(=O)Nc1ccc(-c2cc(C(F)(F)F)nn2-c2ccccc2)cc1`, the survival is inactive: 45%.
To `CCOC(=O)c1c(C)[nH]c(C)c1S(=O)(=O)N1CCCC(C(=O)N2CCN(c3cccc(Cl)c3)CC2)C1` (configuration not stated) belongs inactive: 83%; to `O=C(CN(c1ccc2c(c1)OCCO2)S(=O)(=O)c1ccccc1)NCc1ccco1`, inactive: 85%.
Next, `Cc1ccc2nc(-c3ccc(C)s3)c(Nc3ccc4c(c3)OCCO4)n2c1`: inactive: 108%; `COc1ccc(CCNC(=O)CN(c2ccccc2)S(=O)(=O)N(C)C)cc1`: inactive: 79%.
Next, `COc1ccccc1-c1nn(CCC(=O)Nc2ccccc2)c2nc(C)cc(C)c12`: inactive: 62%; `O=C(NCc1ccccc1Cl)c1ccc2c(c1)NC(=O)C(CS(=O)(=O)Cc1ccc(Cl)cc1)N2` (configuration not stated): inactive: 82%.
As for `O=C(Nc1ccc(F)c(F)c1)C(c1ccccc1)N1Cc2ccccc2C1=O` (configuration not stated), the survival is inactive: 102%.
Next, `CCOc1ccc(CNC(=O)c2cc3cc(S(=O)(=O)N4CCCCC4)ccc3n2C)cc1`: inactive: 89%; `Oc1ccc(NCc2ccccc2OCc2ccccc2)cc1`: inactive: 61%.
Next, `COc1ccc(C(=O)NCCc2csc(-c3ccc(Cl)cc3)n2)c(OC)c1`: inactive: 94%.
Take `CC(C)N(C(=O)Cn1c(-c2cccnc2)ccc(C#N)c1=O)C(C)C`: the survival was inactive: 84%.
Next, `COC(=O)C1=CN(CCCN2CCCC2=O)C=C(C(=O)OC)C1c1cccs1`: inactive: 77%; `O=C1CCCc2oc3c(c21)CCCC3`: inactive: 80%; `CSc1ccc(CCNC(=O)CN2C(=O)COc3ccc(S(=O)(=O)N4CCCCCC4)cc32)cc1`: inactive: 50%.
Next, `COc1ccc(S(=O)(=O)Nc2cccc(-c3ccc(N4CCCCC4)nn3)c2)cc1F`: inactive: 82%; `CN1C(=O)c2ccccc2Sc2ccc(NC(=O)N3CCN(c4ccc(F)cc4)CC3)cc21`: inactive: 73%; `COc1ccc(-c2nc(S(=O)(=O)c3ccccc3)c(N3CCC(C)CC3)o2)cc1`: inactive: 74%.
To `COc1ccc(NC(=O)C(NS(=O)(=O)c2cccc3nsnc23)C(C)C)cc1OC` (configuration not stated) belongs inactive: 80%; to `COc1ccc(Br)cc1CNC(=O)CCSCc1ccc(Cl)cc1`, inactive: 73%.
For the molecule `CCC(=O)N1CCc2cc(CNS(=O)(=O)c3cc(Cl)ccc3OC)ccc21`, the survival was inactive: 87%.
Next, `O=c1cc(O)c2c(=O)n3c4c(cccc4c2o1)CCC3`: inactive: 94%.
For the molecule `Cc1nn(CC(=O)N2CCN(c3ccccc3)CC2)c(=O)c2cc3sccc3n12`, the survival is inactive: 88%.
For the molecule `Cc1ccc(OCCn2c(COc3ccc(Cl)cc3)nc3ccccc32)cc1`, the survival is inactive: 65%.
To `CCN1CCN(c2cc(C)c3cc(NC(=O)c4cc(OC)cc(OC)c4)ccc3n2)CC1` belongs active: 47%; to `O=C(CC1N=C2c3ccccc3N=C(SCc3ccccc3Cl)N2C1=O)NC1CCCCC1` (configuration not stated), inactive: 87%.
On to `COc1ccc(Cl)cc1-n1c(CCC(=O)O)ccc1-c1ccc(C)cc1`, for which the survival was inactive: 73%.
Next, `CC1CCCN(c2nc3nonc3nc2Nc2cccc(Cl)c2)C1` (configuration not stated): active: 0%.
To `COc1ccc(-c2nc3ccc(C(=O)NCc4ccc(C)cc4)cc3nc2-c2ccc(OC)cc2)cc1` belongs inactive: 86%.
With `CC1CCN(S(=O)(=O)c2ccc3c(c2)N(CC(=O)Nc2ccc(F)c(Cl)c2)C(=O)CO3)CC1`, the survival was inactive: 90%.
To `COc1ccc(NC(=O)c2oc3ccccc3c2NC(=O)Cc2ccc(F)cc2)c(OC)c1` belongs inactive: 85%; to `Cc1cccc(NC(=O)CN(c2cccc(C(F)(F)F)c2)S(C)(=O)=O)c1`, inactive: 86%; to `CCOc1cccc(C2c3c(oc4cc(C)c(C)cc4c3=O)C(=O)N2c2nc(C)c(C)s2)c1` (configuration not stated), active: 74%.
Next, `COc1cccc(-c2cc(C(=O)Nc3cccnc3Cl)no2)c1`: inactive: 61%; `Cc1ccc(NC(=O)CN2C(=O)C(C)(C)c3cc(S(=O)(=O)N4CCCCC4)ccc32)c(Br)c1`: inactive: 67%; `Cn1nc(C(=O)Nc2ccccc2C#N)c2c1-c1ccccc1SC2`: inactive: 89%.
To `CC(C)NC(=O)c1ccc2c(c1)nnn2C` belongs inactive: 78%; to `Cc1c(C(=O)Nc2cccc(Cl)c2)oc2ccc(S(=O)(=O)N3CCOCC3)cc12`, inactive: 72%.
In the case of `CCC(C)NC(=O)Cn1cnc2sc(C)c(S(=O)(=O)N3CCN(c4ccccc4OC)CC3)c2c1=O` (configuration not stated), the survival is inactive: 65%.
Next, `COc1cccc(NC(=O)N2CCC(CN3CCOCC3)CC2)c1`: inactive: 94%; `COc1ccc(N2C(=O)CCSC23C(=O)N(Cc2ccc(F)cc2)c2ccccc23)cc1Cl` (configuration not stated): inactive: 78%; `Cc1cccc(N2CCN(S(=O)(=O)c3c(C)nc4scc(C)n4c3=O)CC2C)c1` (configuration not stated): inactive: 89%.
Regarding `Cc1ccc(CCNC(=O)CN2N=C(c3ccc(C)cc3)CCC2=O)cc1`, the survival was inactive: 74%.
Next, `CCc1ccccc1NC(=O)Cn1c(=O)ccc2cc(S(=O)(=O)N3CCC(C)CC3)ccc21`: inactive: 92%; `CC1CCN(C(=O)c2ccc(NC(=O)c3nsc4ccccc34)cc2)CC1`: inactive: 72%; `CCOC(=O)c1sc(NC(=O)c2nc3nc(C)cc(C(F)F)n3n2)c(C(=O)OC)c1C`: inactive: 67%.
In the case of `COc1cccc(NS(=O)(=O)c2cc(-c3cnc(C4CC4)o3)ccc2C)c1`, the survival is inactive: 77%.
To `COc1ccc(-c2noc(C3CC(=O)N(c4ccc5c(c4)OCCO5)C3)n2)c(OC)c1` (configuration not stated) belongs inactive: 98%; to `COC(=O)c1c(NC(=O)/C(C#N)=C/c2ccc(OC)cc2)sc2c1C(C(=O)OC)CC2` (configuration not stated), inactive: 88%.
Next, `CCc1ccccc1NC(=O)[C@H](Cc1ccccc1)N1Cc2ccccc2C1=O`: inactive: 77%; `O=C(O)CSc1nc2ccccc2nc1N1CCCCC1`: inactive: 56%; `COc1ccc(CCNC(=O)CSc2cn(CCNC(=O)c3ccc(OC)c(OC)c3)c3ccccc23)cc1OC`: inactive: 77%.
Next, `OCCCCNc1cccc2ccccc12`: inactive: 93%; `CCOc1ccc(Nc2oc(/C=C/c3cc(OC)c(OC)c(OC)c3)nc2C#N)cc1`: inactive: 58%; `O=C(COC(=O)c1cc(-c2cccs2)nc2ccccc12)c1ccc(Cl)cc1`: inactive: 50%.
On to `COc1cc(C(=O)NCCSc2c(C)[nH]c3ccccc23)cc(OC)c1OC`, for which the survival is inactive: 76%.
To `COc1ccc(NC(=O)CN(C)S(=O)(=O)c2cnc[nH]2)cc1` belongs inactive: 95%; to `CCOc1ccc(NC(=O)CSc2nc3ccccc3c(=O)n2CCC(=O)NC2CCCCC2)cc1`, inactive: 117%.
To `O=C(NC1CC(=O)N(c2ccc(Cl)cc2)C1)C1CCCCC1` (configuration not stated) belongs inactive: 87%; to `Cc1ccc(CNc2c(C)c(C)nc3nncn23)cc1`, inactive: 85%.
Next, `COc1ccc(-c2cn3c(n2)sc2cc(C(=O)NCc4ccccc4)ccc23)cc1`: inactive: 63%.
In the case of `COc1ccc(OC)c(C2CC(=O)Nc3ccc4ccccc4c32)c1` (configuration not stated), the survival was inactive: 111%.
Next, `COc1ccc(Cc2nc3ccc(C(=O)NCCc4ccc(Cl)cc4)cc3o2)cc1`: inactive: 75%.
Next, `CCN(C(=O)CCS(=O)(=O)c1cc(Br)cc2c1N(C(=O)C1CC1)CC2)c1cccc(C)c1`: inactive: 85%; `CC1Cc2cc(S(=O)(=O)CCC(=O)Nc3ccc(OC(F)(F)F)cc3)ccc2N1C(=O)C1CC1` (configuration not stated): inactive: 85%; `NC(=O)c1noc(C(=O)N(c2ccc(OC(F)(F)F)cc2)C(C(=O)NC2CCCC2)c2c[nH]c3ccccc23)c1N` (configuration not stated): inactive: 104%.
To `COc1ccccc1C1=Nn2c(nc3sc(C(=O)Nc4ccccc4Cl)c(C)c3c2=O)SC1` belongs inactive: 86%; to `Cc1ccc(C)c(C(=O)N2CCC(c3nc4c(nnn4Cc4ccccc4)c(=O)[nH]3)CC2)c1`, active: 39%.
As to `CCOCCCn1c(SCC(=O)Nc2ccccc2OC)nc2c(oc3ccccc32)c1=O`, the survival was inactive: 82%.
Next, `COc1ccc(C2c3cc(OC)c(OC)cc3CC(=O)N2c2cccc(C#N)c2)cc1` (configuration not stated): inactive: 84%.
Regarding `O=C(c1ccco1)N1CCN(C(c2ccccc2)c2nnnn2Cc2ccccc2)CC1` (configuration not stated), the survival is inactive: 88%.
To `CC(NC(=O)c1c(O)nc2ccccn2c1=O)c1ccccc1` (configuration not stated) belongs inactive: 54%.
Regarding `Cc1cccc(C)c1NC(=O)CSc1nccn1C`, the survival was inactive: 74%.
To `Cc1ccc(C)c(CN2C(=O)c3ccccc3S(=O)(=O)c3ccc(C(=O)N4CCN(Cc5ccccc5)CC4)cc32)c1` belongs inactive: 59%.
To `CCOc1ccc(CNC(=O)c2cccc(Nc3nc4ccccc4n4nnnc34)c2)cc1OC` belongs inactive: 50%; to `CCOc1ccc(NC(=O)c2oc3ccccc3c2NC(=O)C(C)Oc2ccccc2)cc1` (configuration not stated), inactive: 75%; to `CC(=O)c1cc2c(cc1N/C(=N/S(=O)(=O)c1ccc(C)cc1)c1ccc(Cl)cc1)OCO2`, active: 37%.
To `O=C(CCn1c(=O)c2cccn2c2cccnc21)NCc1cccc(Br)c1` belongs inactive: 82%; to `Cc1ccc2c(=O)cc(C(=O)Nc3ccc(S(=O)(=O)N4CCCC(C)C4)cc3)oc2c1C` (configuration not stated), active: 51%.
Take `CCOc1ccc(Sc2cc(C(=O)NCCc3ccc(OC)c(OC)c3)c3ccccc3n2)cc1`: the survival was inactive: 86%.
To `CCn1cc(C(=O)N2CCN(c3ccccc3OC)CC2)c(=O)c2cc(S(=O)(=O)N3CCCCC3)ccc21` belongs inactive: 77%; to `COc1ccc(-c2nn(-c3ccccc3)cc2C(=O)Nc2ccccc2OC)cc1`, active: -2%.
Next, `Cc1cccc(C(=O)Nc2ccccc2-c2nc(-c3ccccc3)no2)c1`: inactive: 57%.
Next, `CC(=O)c1c(C)oc2ccc(N(C(=O)Oc3ccccc3)S(=O)(=O)c3ccc(Br)cc3)cc12`: inactive: 131%; `O=C(Nc1ccccc1)Nc1cccc2nsnc12`: inactive: 69%; `CC(C)CN(c1ccccc1)S(=O)(=O)c1nnc(NC(=O)c2ccco2)s1`: active: 31%.
Turning to `CC1=C(c2ccc(C)c(C)c2)S(=O)(=O)N=C1N1CCN(c2cccc(C(F)(F)F)c2)CC1`, the survival is inactive: 87%.
